PubChem BioAssay AID1466 (National Center for Advancing Translational Sciences (NCATS), 2008)
Hit rate of the full screen: of about 200,000 compounds, about 10 (0.005%) were called active. The inconclusive results got no clear call from the source; some entries with a clear call stand among them for comparison. Calls follow the shape of the dose curve; as a rule, active = well fitted inhibition curve with a large enough effect; inconclusive = small, poorly fitted or top-dose-only effect, or effect the other way, or another doubt; inactive = no such curve, though single readings can be large or run the other way. Potencies beside an inconclusive call are fits to weak or partial responses and may not hold up.

Each compound was assayed against Lysosomal alpha-glucosidase (Homo sapiens) (UniProt P10253) (assay: qHTS Assay for Inhibitors of Human alpha-Glucosidase as a Potential Chaperone Treatment of Pompe Disease). Conditions: purified human GAA, 4-MU-alpha-glucoside fluorescence; activity change, negative = inhibition: at 76.9 µM (top of the series) unless noted.
Method in brief: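 Endpoint fluorogenic read: 20 min room-temperature reaction of 4 nM human alpha-glucosidase with 400 uM 4-methylumbelliferyl-alpha-D-pyranoside, pH 5.0, quenched with 1M NaOH/1M glycine pH 10. AC50 from Hill modeling.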
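For activity change, negative = inhibition in this document: plate controls were uninhibited enzyme wells for no effect and no-enzyme background for full effect.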
Potency is read from the fitted curve at half-maximal effect; tags tell the direction and shape of the fitted curve.

Row | Compound | activity change, negative = inhibition | Potency
1 | Cc1ccc(C)c2sc(N)nc12 | inactive: 2.03% | 
2 | C=C(C)CNC(=S)N/N=C/c1ccccc1OCC(=O)O | inconclusive: -16.6% [inhibitor] | 
3 | Cc1ccc(-n2cc(S(=O)(=O)c3ccc(C)cc3)[nH]c2=O)cc1 | inactive: 7.41% | 
4 | CCc1ccc2c(c1)[C@]1(C(=O)N2)[C@@H]2C(=O)N(Cc3ccccc3)C(=O)[C@@H]2[C@@H]2CCCN21 |  | inconclusive: 22.4 µM [inhibitor, single point]
5 | COc1ccc(OCCC(=O)OCC(=O)c2ccc[nH]2)cc1 |  | inconclusive: 44.7 µM [inhibitor, partial curve, poor fit]
6 | COc1ccc(-c2nnc(SCC(=O)Nc3ccc(Cl)cc3)n2C)cc1 |  | inconclusive: 0.316 µM [inhibitor, full curve]
7 | Cc1ccc2[nH]c(=O)c3cc(C(=O)NCC4CCCO4)sc3c2c1 (centres undefined) |  | inconclusive: 22.4 µM [activator, partial curve, poor fit]
8 | CCOc1ccc(NC(=O)c2ccc3nccnc3c2)cc1 |  | inconclusive: 1.12 µM [inhibitor, full curve, poor fit]
9 | CNC(=O)c1ccccc1F |  | inconclusive: 0.794 µM [inhibitor, single point]
10 | CCc1ccc2oc(-c3ccc(OC)cc3)cc(=Nc3c(C)n(C)n(-c4ccccc4)c3=O)c2c1 |  | inconclusive: 25.1 µM [activator, partial curve, poor fit]
11 | CS(=O)(=O)c1ccc(Cl)c(NC(=O)COC(=O)c2c(Cl)cccc2Cl)c1 |  | inconclusive: 28.2 µM [inhibitor, single point]
12 | Cc1ccc(SC(C)C(=O)Nc2cccc(N(C)S(C)(=O)=O)c2)cc1 (centres undefined) |  | inconclusive: 0.562 µM [inhibitor, full curve]
13 | Cc1c(-c2ccc(F)cc2)nc(N)c(C#N)c1-c1cccs1 |  | inconclusive: 0.178 µM [inhibitor, full curve, poor fit]
14 | C=CCn1c(COc2ccccc2)nnc1SC(C)C(=O)N/N=C/c1cc(Cl)ccc1O (centres undefined) | inconclusive: -15.5% [inhibitor] | 
15 | CCOc1ccc(S(=O)(=O)Oc2ccc3ccccc3c2)cc1 |  | inconclusive: 56.2 µM [inhibitor, single point]
16 | CN(Cc1cccs1)S(=O)(=O)c1cccs1 | inconclusive: 16.2% [activator] | 
17 | COc1c(C)oc2cc(O)ccc2c1=O |  | inconclusive: 39.8 µM [activator, single point]
18 | CCC(c1n[nH]c(=S)n1-c1ccccc1)N(C)C (centres undefined) |  | inconclusive: 11.2 µM [inhibitor, single point]
19 | CCN(CC)CC(=O)Nc1c(C)cccc1C |  | inconclusive: 56.2 µM [inhibitor, single point]
20 | Cc1cccc(NC(=O)Nc2ccc(C#N)cc2)n1 | inconclusive: -16.6% [inhibitor] | 
21 | CCn1c(C(C)NC(=O)c2cccc(C)c2)nc2ccccc21 (centres undefined) |  | inconclusive: 50.1 µM [inhibitor, single point]
22 | Cc1ccccc1Cn1cc(NC(=O)c2cc3nc(-c4ccco4)cc(C(F)(F)F)n3n2)cn1 |  | inconclusive: 56.2 µM [activator, single point]

Row | Compound | activity change, negative = inhibition | Potency
23 | COc1ccc(C(=O)CNc2ccc3ccccc3c2)cc1 | inconclusive: 17.4% [activator] | 
24 | CN(C1CCCCC1)S(=O)(=O)c1ccc(S(=O)(=O)N2CCN(C(=O)c3ccccc3F)CC2)cc1 |  | inconclusive: 25.1 µM [inhibitor, partial curve]
25 | Cc1cc(C)c(C#N)c(N2CCN(CCOc3ccc(Cl)cc3)CC2)n1 | inconclusive: -21.6% [inhibitor] | 
26 | CCOC(=O)c1ccc(NC(=O)CC2C(=O)N(c3ccc(F)cc3)C(=O)N2CCC(C)C)cc1 (centres undefined) |  | inconclusive: 25.1 µM [inhibitor, single point]
27 | COC(=O)c1ccc2c(=O)n(Cc3ccco3)c(SCC(=O)Nc3ccc(C)c(Cl)c3)nc2c1 |  | inconclusive: 3.16 µM [inhibitor, partial curve]
28 | CNC(=O)c1ccc(-c2sc3nc(N4CCOCC4)c4c(c3c2N)CC(C)(C)OC4)o1 |  | inconclusive: 22.4 µM [activator, partial curve, poor fit]
29 | Cc1nc(C)c(C(=O)Nc2ncc([N+](=O)[O-])s2)o1 |  | inconclusive: 50.1 µM [inhibitor, single point]
30 | COC(=O)c1ccccc1NC(=O)/C=C/c1cc(OC)c(OC)c(OC)c1 |  | inconclusive: 35.5 µM [activator, partial curve]
31 | O=C(Cn1ncc2c1-c1ccccc1OC2)Nc1ccc(S(=O)(=O)N2CCCCC2)cc1 | inconclusive: -15% [inhibitor] [at 15.4 µM] | 
32 | CCOC(=O)c1nnc(-c2ccc(C)cc2)nc1Oc1ccc(Cl)cc1Cl |  | inconclusive: 5.01 µM [inhibitor, single point]
33 | O=[N+]([O-])c1ccc2nc(-c3ccc(OC(F)F)cc3)cn2c1 | inconclusive: -19.5% [inhibitor] | 
34 | CN(C)S(=O)(=O)c1cccc(-c2cn3cccnc3n2)c1 |  | inconclusive: 39.8 µM [activator, partial curve]
35 | CSc1nc2sc3c(c2c2nncn12)CCC3 |  | inconclusive: 56.2 µM [inhibitor, single point]
36 | C=CCNC(=O)CSc1ncc2c(n1)-c1c(csc1SC)CC2 |  | inconclusive: 35.5 µM [activator, partial curve]
37 | CCN(CC)S(=O)(=O)c1cc(NC(=O)C(=O)c2c(-c3ccccc3)cc3ccccn23)ccc1C | inconclusive: -16% [inhibitor] | 
38 | CCCC1=Nc2cc(C(=O)NCCCOC(C)C)ccc2Sc2ccccc21 |  | inconclusive: 31.6 µM [inhibitor, partial curve]
39 | C=CCn1c(SCC(=O)Nc2sccc2C(N)=O)nc2sc(CC)cc2c1=O |  | inconclusive: 56.2 µM [inhibitor, single point]
40 | CC1CCCN(C(C(=O)Nc2ccc(C(C)C)cc2)c2ccc3c(c2)OCO3)C1 (centres undefined) |  | inconclusive: 44.7 µM [inhibitor, single point]
41 | O=C(CC(C(=O)O)P(=O)(c1ccccc1)c1ccccc1)c1ccccc1 (centres undefined) |  | inconclusive: 0.355 µM [activator, full curve]
42 | COc1ccc(/C(N)=N/OC(=O)c2cccc([N+](=O)[O-])c2C)cc1OC |  | inconclusive: 0.794 µM [inhibitor, single point]
43 | COCCN1C(=O)/C(=C/c2ccc(OCc3ccc(C(=O)O)cc3)c(OC)c2)SC1=Nc1ccccc1 |  | inconclusive: 56.2 µM [inhibitor, single point]
44 | CC(=O)OC(COC1C[C@@H]2CC[C@@]1(C)C2(C)C)C[N+]1(C)CCCCC1 (some centres undefined) |  | inconclusive: 56.2 µM [inhibitor, single point]

Row | Compound | activity change, negative = inhibition | Potency
45 | O=C(NCC1CCCO1)c1ccc(NS(=O)(=O)c2cccs2)cc1 (centres undefined) |  | inconclusive: 35.5 µM [inhibitor, single point]
46 | COc1cc2[nH]c(=S)nc(NCCc3ccc(C)cc3)c2cc1OC | inconclusive: -15.7% [inhibitor] | 
47 | CCOC(=O)COc1ccc2c(=O)c(-c3ccccc3)coc2c1 |  | inconclusive: 11.2 µM [inhibitor, single point]
48 | CS(=O)(=O)N1CCN(c2ccc(NC(=O)CSc3ccc(Cl)cc3)cc2)CC1 |  | inconclusive: 56.2 µM [inhibitor, partial curve, poor fit]
49 | CCOc1ccc(S(=O)(=O)N(CC(=O)N/N=C/c2ccc(-c3ccc([N+](=O)[O-])cc3)o2)c2ccccc2)cc1 | inconclusive: -16.2% [inhibitor] | 
50 | O=C1CCC/C(=N\NC(=O)c2ccc(NS(=O)(=O)c3ccc(Br)cc3)cc2)C1 |  | inconclusive: 28.2 µM [inhibitor, single point]
51 | NS(=O)(=O)c1ccc(NC(=O)COC(=O)/C(=C/c2cccs2)c2cccs2)cc1 |  | inconclusive: 7.08 µM [inhibitor, full curve]
52 | Cc1cccc(N2C(=O)CC(N3CCN(C(=O)c4ccccc4)CC3)C2=O)c1 (centres undefined) |  | inconclusive: 0.178 µM [inhibitor, full curve, poor fit]
53 | CCOc1cc(/C=N/NC(=O)C(C)Sc2ccccc2)ccc1O (centres undefined) | inconclusive: 2.22% [activator] | 
54 | Cc1cccc(N2CN=c3s/c(=C\c4ccncc4)c(=O)n3C2)c1 |  | inconclusive: 0.891 µM [inhibitor, full curve, poor fit]
55 | CN1c2ccccc2C(C)(C)C12C=Nc1c(ccc3ccccc13)O2 (centres undefined) | inactive: 1.25% | 
56 | COCCCNC(=O)C(C#N)c1nc2ccccc2nc1N1CCN(Cc2ccccc2)CC1 (centres undefined) | inconclusive: -18.4% [inhibitor] | 
57 | COCc1cc(=O)n2c([nH]c3ccccc32)c1C#N |  | inconclusive: 35.5 µM [activator, partial curve]
58 | Cc1cccc2nc(-c3ccco3)c(Nc3ccc4c(c3)OCO4)n12 | inactive: -2.53% | 
59 | NS(=O)(=O)c1ccc(NC(=S)NC(=O)c2ccco2)cc1 |  | inconclusive: 2.82 µM [inhibitor, single point]
60 | c1ccc(-c2n[nH]c3ccccc23)cc1 |  | inconclusive: 11.2 µM [inhibitor, single point]
61 | COC(=O)c1ccc(NC(=O)CCS(=O)(=O)c2ccc(Br)cc2)cc1 | inactive: -10% | 
62 | Cc1ccc(S(=O)(=O)NC(=O)Nc2cc(C(C)(C)C)on2)cc1 |  | inconclusive: 0.158 µM [inhibitor, full curve, poor fit]
63 | COc1ccc(N2C(=O)C(Cl)=C(Nc3c(C)n(C)n(-c4ccccc4)c3=O)C2=O)cc1 | inactive: 5.56% | 
64 | O=C(CSc1nc2ccccc2n1CCc1ccccc1)N1CCOCC1 | inactive: 2.39% | 
